The supplement of paper PMC7826260
The other results are listed elsewhere or left out. The data describe in vitro nicking of single-stranded DNA by Rep domains at 3 µM enzyme and 37 °C for 1 h; the strands have 90 letters, of which the middle is given. The score is log2 (uncut reads / reads without enzyme); uncut sequences lie near 0, cut ones below; no hit call is given. The scaling is to total reads; uncut strands gain when others are lost, and binding without cutting may add a little.

Test system: T1, Rep nickase domain of tomato golden mosaic virus
T1 sequence (residues 1-124, tag not shown): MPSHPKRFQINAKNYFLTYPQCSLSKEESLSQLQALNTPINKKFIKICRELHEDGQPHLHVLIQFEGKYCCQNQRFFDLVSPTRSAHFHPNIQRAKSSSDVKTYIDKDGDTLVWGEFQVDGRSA
Test: uncleaved DNA left, log2 of reads against the no-enzyme library (log2 ratio); higher = less cleavage (more negative = more Rep cleavage of the k-mer); sequences stand for … in CTCGTCCG…ACCGGAGA
Procedure: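 A pool of 90-nt single-stranded DNAs with seven random bases just before the constant AC of the nick site (name = the seven bases) was cut by 3 µM recombinant His6-SUMO-tagged Rep nickase domain (300 nM DNA, 50 mM HEPES pH 8.0, 50 mM NaCl, 1 mM MnCl2, 1 h, 37 °C, three replicates). Uncut DNA was amplified and sequenced.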

**Q.** For GCCTCCC, which “uncleaved DNA left (log2)” value is on record?
**A.** -0.0836

**Q.** For ACCGGGG, which “uncleaved DNA left (log2)” value is on record?
**A.** 0.164

**Q.** Which “uncleaved DNA left (log2)” value does the source give for CTTGGCT here?
**A.** -0.0942

**Q.** AGCGACC was tested. Which “uncleaved DNA left (log2)” value did it give?
**A.** 0.0616

**Q.** For CTACATT, which “uncleaved DNA left (log2)” value is on record?
**A.** -0.305

**Q.** For TCGATGA, which “uncleaved DNA left (log2)” value is on record?
**A.** -0.103

**Q.** Which “uncleaved DNA left (log2)” value does the source give for TCCTTTC here?
**A.** -0.142

**Q.** With AGTTAGC as the sequence, how does the “uncleaved DNA left (log2)” value read?
**A.** -0.0654

**Q.** For ACCGGTA, which “uncleaved DNA left (log2)” value is on record?
**A.** -0.0832

**Q.** Which “uncleaved DNA left (log2)” value does the source give for CCAGCAC here?
**A.** -0.00948

**Q.** For GGTTGAC, which “uncleaved DNA left (log2)” value is on record?
**A.** -0.0111

**Q.** How did the “uncleaved DNA left (log2)” value turn out when GTTAATA was run?
**A.** 0.125

**Q.** For GACGACA, which “uncleaved DNA left (log2)” value is on record?
**A.** 0.0316

**Q.** Which “uncleaved DNA left (log2)” value does the source give for GACTGCT here?
**A.** 0.0116

**Q.** TGCATGT was tested. Which “uncleaved DNA left (log2)” value did it give?
**A.** -0.0853

**Q.** How did the “uncleaved DNA left (log2)” value turn out when AAAAATG was run?
**A.** 0.162

**Q.** For CGCGTTA, which “uncleaved DNA left (log2)” value is on record?
**A.** -0.143

**Q.** For GATGGCT, which “uncleaved DNA left (log2)” value is on record?
**A.** 0.0455

**Q.** For CTTGTAG, which “uncleaved DNA left (log2)” value is on record?
**A.** -0.0232

**Q.** For TAAGCAT, which “uncleaved DNA left (log2)” value is on record?
**A.** -0.194

**Q.** TGTCGCT was tested. Which “uncleaved DNA left (log2)” value did it give?
**A.** -0.168

**Q.** GGTGTTC was tested. Which “uncleaved DNA left (log2)” value did it give?
**A.** -0.128

**Q.** Which “uncleaved DNA left (log2)” value does the source give for CTGGTTA here?
**A.** -0.0503

**Q.** With ATCTGGG as the sequence, how does the “uncleaved DNA left (log2)” value read?
**A.** 0.0146

**Q.** For ACTACTT, which “uncleaved DNA left (log2)” value is on record?
**A.** 0.0324

**Q.** Which “uncleaved DNA left (log2)” value does the source give for TCAGTTC here?
**A.** -0.0685

**Q.** For CTTCAAG, which “uncleaved DNA left (log2)” value is on record?
**A.** -0.12

**Q.** CCCAACC was tested. Which “uncleaved DNA left (log2)” value did it give?
**A.** -0.0837

**Q.** ATGCCCG was tested. Which “uncleaved DNA left (log2)” value did it give?
**A.** -0.0471

**Q.** With GGTTCTT as the sequence, how does the “uncleaved DNA left (log2)” value read?
**A.** 0.045

**Q.** Which “uncleaved DNA left (log2)” value does the source give for TGGCGAA here?
**A.** -0.13

**Q.** Which “uncleaved DNA left (log2)” value does the source give for GATCCCC here?
**A.** 0.0851

**Q.** How did the “uncleaved DNA left (log2)” value turn out when AGAAAGA was run?
**A.** 0.08

**Q.** How did the “uncleaved DNA left (log2)” value turn out when CGAAGTG was run?
**A.** -0.0919

**Q.** Which “uncleaved DNA left (log2)” value does the source give for CCCAAAT here?
**A.** 0.0954

**Q.** Which “uncleaved DNA left (log2)” value does the source give for AGTGCTA here?
**A.** 0.111

**Q.** Which “uncleaved DNA left (log2)” value does the source give for CTTTCCA here?
**A.** -0.146

**Q.** TCGCGGG was tested. Which “uncleaved DNA left (log2)” value did it give?
**A.** 0.162

**Q.** With CTGCTAG as the sequence, how does the “uncleaved DNA left (log2)” value read?
**A.** 0.0366

**Q.** With AATCTGC as the sequence, how does the “uncleaved DNA left (log2)” value read?
**A.** 0.0617
